Measured values from publication PMC4336329 (PLoS ONE, 2015).
Screen size: about 310,000 compounds; about 2,200 (0.71%) showed an effect of 50% or more. Effects have a minus sign here. The list shows a part of the results.

The compounds below were run against human ether-à-go-go-related gene (hERG) potassium channel (human, UniProt Q12809) (assay: primary screen, population patch clamp on CHO cells stably expressing hERG).
human ether-à-go-go-related gene (hERG) potassium channel, sequence (Q12809 whole entry, looked up): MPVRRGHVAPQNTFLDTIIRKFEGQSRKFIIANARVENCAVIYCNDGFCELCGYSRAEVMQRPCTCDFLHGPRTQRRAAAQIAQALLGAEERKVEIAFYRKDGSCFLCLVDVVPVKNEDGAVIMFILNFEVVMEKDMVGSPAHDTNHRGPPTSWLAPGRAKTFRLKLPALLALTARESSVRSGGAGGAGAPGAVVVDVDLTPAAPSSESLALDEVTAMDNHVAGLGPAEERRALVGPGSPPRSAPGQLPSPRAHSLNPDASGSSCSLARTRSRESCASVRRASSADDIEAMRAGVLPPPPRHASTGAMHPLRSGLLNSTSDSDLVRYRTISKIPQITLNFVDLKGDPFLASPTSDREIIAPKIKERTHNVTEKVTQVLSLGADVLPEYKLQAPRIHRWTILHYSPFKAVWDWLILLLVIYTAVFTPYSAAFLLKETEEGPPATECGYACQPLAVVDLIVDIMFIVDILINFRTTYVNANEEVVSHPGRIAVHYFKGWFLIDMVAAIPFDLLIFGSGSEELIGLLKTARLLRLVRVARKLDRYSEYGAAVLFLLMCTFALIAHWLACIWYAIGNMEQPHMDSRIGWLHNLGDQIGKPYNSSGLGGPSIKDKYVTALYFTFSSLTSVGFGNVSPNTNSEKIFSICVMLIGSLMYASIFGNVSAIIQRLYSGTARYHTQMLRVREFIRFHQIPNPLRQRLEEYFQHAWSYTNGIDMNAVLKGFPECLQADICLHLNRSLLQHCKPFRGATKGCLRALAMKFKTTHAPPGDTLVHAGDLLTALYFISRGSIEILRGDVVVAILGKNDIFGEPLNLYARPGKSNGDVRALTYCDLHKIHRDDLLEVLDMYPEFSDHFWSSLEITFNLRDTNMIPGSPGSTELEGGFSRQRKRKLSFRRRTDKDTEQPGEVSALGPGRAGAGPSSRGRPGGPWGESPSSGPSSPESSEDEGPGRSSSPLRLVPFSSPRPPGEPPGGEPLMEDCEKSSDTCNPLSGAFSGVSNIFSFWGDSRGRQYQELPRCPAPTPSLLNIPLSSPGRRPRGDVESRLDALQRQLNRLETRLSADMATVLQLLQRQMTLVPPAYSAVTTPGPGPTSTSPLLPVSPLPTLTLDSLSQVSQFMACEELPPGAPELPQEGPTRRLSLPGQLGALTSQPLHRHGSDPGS

| Compound | hERG current change (%, negative = inhibition) at 1uM [%] |
| --- | --- |
| CSCC[C@H](NC(=O)c1ccc2c(c1)OCO2)c1nnc2ccccn12 | -3.7 |
| Cc1cc(C)c2c(N)c(C(=O)Nc3ccc(C)c(C)c3)sc2n1 | 8.28 |
| O=C1CC(N2CCC(n3c(=O)[nH]c4ccccc43)CC2)C(=O)N1Cc1ccccc1 (stereo not shown) | 5.14 |
| O=c1cc(CSc2ccc(Cl)cc2)nc(N2CCOCC2)[nH]1 | 9.78 |
| COC(=O)C(NC(C)=O)(Nc1nc2c(C)cc(C)cc2s1)C(F)(F)F (stereo not shown) | 21.5 |
| COc1ccc(OC)c(C2c3c(oc4ccccc4c3=O)C(=O)N2CCCN(C)C)c1 (stereo not shown) | 16.1 |
| O=C(COC(=O)CNS(=O)(=O)c1ccc(Br)cc1Cl)NCCc1ccccc1 | 12 |
| O=C(NCCc1ccccc1F)[C@@H]1CSC2c3ccccc3C(=O)N21 (stereo partly shown) | 5.23 |
| CCC(NC(=O)c1ccccc1NC(=O)c1ccccc1)C(=O)NNC(=O)c1cccnc1 (stereo not shown) | 9.6 |
| N#Cc1cnc2sc3ccccc3n2c1=N | -11.7 |
| O=C(CCc1nc2ccccc2c(=O)[nH]1)NCc1ccco1 | -15.5 |
| CN(C)/C=C1\C(=O)N(C)N=C1C(F)(F)F | 1.99 |
| CC(C)NC(=O)c1ccc(Cl)cc1Cl | 14.1 |
| COCCc1nn2c(=O)cc(COC(=O)c3cc(OC)c(OC)c(OC)c3)nc2s1 | -3.3 |
| O=[N+]([O-])c1ccc2n[nH]nc2c1 | 15 |
| Cc1nn(C)c(C)c1/C=N/NC(=O)c1csc2ccccc12 | 1.92 |
| CC(NS(=O)(=O)c1ccc(Cl)cc1)C(=O)OCC(=O)c1ccc[nH]1 (stereo not shown) | 9.11 |
| Cc1ccc(C)c(OCC(=O)Nc2ccc(S(=O)(=O)Nc3onc(C)c3C)cc2)c1 | 11.2 |
| COCCn1c(SCC(=O)N2CC(C)OC(C)C2)nc2c([nH]c3ccccc32)c1=O (stereo not shown) | 2.51 |
| O=C(CN1CCc2ccccc21)NCc1ccc2c(c1)OCO2 | 15.2 |
| O=C(CN1C(=O)c2ccccc2S1(=O)=O)NCc1ccccn1 | 11.1 |
| O=C(NNC(=O)C1CC(c2cccs2)=NO1)NC1CCCCC1 (stereo not shown) | 14.7 |
| COc1ccc(-c2csc(N(CCc3ccccc3)C(=O)COc3ccccc3)n2)cc1 | 13.7 |
| C=CCNC(=O)Nc1ccc2nc(C)sc2c1 | 11.4 |
| Cc1cccc(NC(=O)c2ccc3c(c2)C(=O)N(Cc2cccnc2)C3=O)c1C | 4.06 |
